Reference: PubChem BioAssay AID588855 (National Center for Advancing Translational Sciences (NCATS), 2011)
Where “and” joins values, the source holds several entries; their conditions need not be identical. Equal values may be shown once. Screen size: about 410,000 compounds; about 5,000 (1.2%) were called active. This list was built around the results that the source calls inconclusive (neither active nor inactive); the mix of calls is not that of the screen. Calls follow the shape of the dose curve; as a rule, active = well fitted inhibition curve with a large enough effect; inconclusive = small, poorly fitted or top-dose-only effect; inactive = no such curve, though single readings can be large or run the other way. Potencies beside an inconclusive call are fits to weak or partial responses and may not hold up.

Test: qHTS for Inhibitors of TGF-b; also: nearly all actives have a fitted effect of over 65% in size
Settings: HepG2 CAGA-GFP TGF-b/SMAD3 reporter, GFP fluorescence, 18 h, TGF-beta stimulated, 500 pg/mL final; series mostly up to 46.1 µM; activity, negative = inhibition: at the top concentration
Summary of the method: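 Per well, imaged GFP fluorescence of HEPG2 CAGA-GFP cells gives the signal; cells get compound, then TGF-beta (500 pg/mL final), 18 h at 37 degrees C; %Activity versus -TGF-beta and +DMSO controls.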
% is scaled to controls: 0 for no effect and ±100 for the full control effect; potency is read from the fitted curve at half-maximal effect; tags tell the direction and shape of the fitted curve.

| SMILES | Potency | activity, negative = inhibition |
| --- | --- | --- |
| COCCN1CCN(c2cc(-c3ccccc3)nc3cc(-c4cccc(F)c4)nn23)CC1 | inconclusive: 35.5 µM [inhibitor, single point] |  |
| COc1cccc(NC(=O)NCCCSC2CCCCC2)c1 |  | inactive: -33.2% |
| Cn1nc(C(=O)NCc2ccc(Cl)cc2)c2c1-c1ccccc1S(=O)(=O)C2 | inconclusive: 35.5 µM [inhibitor, partial curve, poor fit] and inconclusive: 35.5 µM [inhibitor, single point] |  |
| CCN(CC)CC#CC(C)(C)OC(C)=O | inconclusive: 35.5 µM [inhibitor, single point] |  |
| COC(=O)c1cn(C(=O)c2ccccc2Cl)c2ccccc12 |  | inactive: -5.56% |
| COc1ccc(CNC(=O)Cn2c(SCC(=O)Nc3ccc(OC)cc3)nc3ccccc32)cc1 | inconclusive: 3.55 µM [inhibitor, partial curve, poor fit] |  |
| NC(=O)c1cnn(-c2cccc(Cl)c2)c1N | inconclusive: 22.4 µM [inhibitor, single point] |  |
| CCN(C(=O)COC(=O)CCOc1ccc(C(C)(C)C)cc1)c1c(N)n(Cc2ccccc2)c(=O)[nH]c1=O |  | inactive: -1.03% |
| O=Cc1c(OCc2ccccc2)ccc2ccccc12 | inconclusive: 0.501 µM [inhibitor, full curve, poor fit] |  |
| CC(c1ccccc1)N1CCn2c(nc3cc(NC(=O)NC4CCCCC4)ccc32)C1 (stereo not given) |  | inactive: 50.7% |
| FC(F)(F)c1ccc(NC(=S)NC2CCCCC2)cc1 | inconclusive: 10 µM [inhibitor, partial curve, poor fit] |  |
| CN1CCN(C2(CNC(=O)c3ccc(C(C)(C)C)cc3)CCCCC2)CC1 |  | inactive: 0% |
| S=C(Nc1ccccc1Oc1ccccc1)Nc1cccc(Cl)c1Cl |  | inactive: -20.6% |
| C#CCn1c(C2CC(=O)N(c3ccc(OC)cc3)C2)nc2ccccc21 (stereo not given) | inconclusive: 6.31 µM [inhibitor, single point] |  |
| Cc1ccc(NC(=S)NNC(=O)c2ccc(N3CCOCC3)c([N+](=O)[O-])c2)cc1C |  | inactive: -3.12% |
| COc1cccc(-c2cc(C(=O)Nc3c(C)nn(Cc4ccccc4Cl)c3C)no2)c1 | inconclusive: 35.5 µM [inhibitor, single point] |  |
| CC(C)NC(=O)CSc1nc2ccccc2n1CC(=O)N1CCc2ccccc21 | inconclusive: 35.5 µM [inhibitor, single point] |  |
| CC(=O)c1c(C)[nH]c(C(=O)CN(C)CC(=O)Nc2ccccc2Cl)c1C |  | inactive: 0% |
| Cn1ccsc1=NC(=O)c1ccccc1F |  | inactive: -9.99% |
| O=C(COC(=O)C1CC2CCCC(C1)C2=O)Nc1cccc(F)c1 (stereo not given) | inconclusive: 12.6 µM [inhibitor, partial curve] |  |
| Cc1ccc(-c2c(C#N)c(N)n3c(nc4ccccc43)c2C#N)cc1 | inconclusive: 3.98 µM [inhibitor, partial curve] |  |
| Clc1ccc(-c2nc3cnccn3c2Nc2ccc3c(c2)OCO3)cc1 | inconclusive: 0.794 µM [inhibitor, full curve, poor fit] |  |
| Cc1cc(C)c2nc(N(CCN(C)C)C(=O)c3ccc4ccccc4c3)sc2c1 | inconclusive: 35.5 µM [inhibitor, single point] |  |

| SMILES | Potency | activity, negative = inhibition |
| --- | --- | --- |
| Cc1ccc2nc3n(c2c1)CCCN3 | inconclusive: 15.8 µM [inhibitor, partial curve, poor fit] |  |
| CCn1cc(C(=O)OCC(=O)NCc2ccc3c(c2)OCO3)c(=O)c2ccc(C)nc21 | inconclusive: 5.62 µM [inhibitor, single point] |  |
| CCNC(=O)C1(C)CCCN(Cc2cc3ccccc3o2)C1 (stereo not given) |  | inactive: -5.54% |
| CCCNC(=O)Cn1nc(-c2ccccc2OC)ccc1=O |  | inactive: 5.15% |
| COc1cccc(-c2cnc3c(NC=O)cc(-c4ccc(OC)cc4OC)cn23)c1 | active: 4.47 µM |  |
| CCC1(C)CC(=O)c2c(ccc3oc(C(=O)NCc4ccccc4)c(C)c23)O1 (stereo not given) | inconclusive: 1.12 µM [inhibitor, full curve, poor fit] |  |
| COCC(=O)n1nc(-c2ccccc2)nc1NCc1cccs1 | inconclusive: 0.112 µM [inhibitor, full curve, poor fit] |  |
| Cc1ccccc1CC1(CO)CCCN(Cc2ccccc2Cl)C1 (stereo not given) |  | inactive: -18.6% |
| CCOC(=O)C1=C(COC(=O)/C=C/c2ccc(OC)c(OC)c2)NC(=O)NC1C (stereo not given) |  | inactive: 6.79% |
| CN(c1ccccc1C(=O)N1CCN(c2cccc(Cl)c2)CC1)S(C)(=O)=O | inconclusive: 1.41 µM [inhibitor, partial curve] |  |
| CCOc1ccc(C(=O)/C=C/c2cn(CC(O)CN3CCCCCC3)c3ccccc23)cc1 (stereo not given) | inconclusive: 35.5 µM [inhibitor, single point] |  |
| CCOC(=O)C1=CCN(S(=O)(=O)c2ccccc2F)C1c1cccc(Br)c1 (stereo not given) | inconclusive: 11.2 µM [inhibitor, partial curve, poor fit] |  |
| O=C(O)c1ccccc1NC(=O)N1CCOCC1 |  | inactive: -1.61% |
| Cc1ccc(OCC(=O)NC(=S)Nc2ccc(S(=O)(=O)Nc3cc(C)on3)cc2)c(Br)c1 |  | inactive: 2.19% |
| CCc1cc2c(=O)c(-c3nc(C)cs3)coc2cc1OC(C)C(=O)NCCO (stereo not given) |  | inactive: -22.3% |
| COc1ccc(OCC(=O)Nc2nnc(S(=O)(=O)N3CCc4ccccc43)s2)cc1 | inconclusive: 10 µM [inhibitor, partial curve, poor fit] |  |
| Cc1ccc(C)c(S(=O)(=O)N2CCN(C(=O)c3cncc(Br)c3)CC2)c1 | inconclusive: 6.31 µM [inhibitor, single point] |  |
| Cc1ccc(NC(=O)COC(=O)CCC2CCCC2)c(Br)c1 |  | inactive: 15.2% |
| Cc1cccc(C)c1Nc1c(-c2ccccc2F)nc2cccc(C)n12 | inconclusive: 35.5 µM [inhibitor, single point] |  |
| COc1ccc(CCNC(=O)COC(=O)c2cc(S(=O)(=O)N3CCOCC3)ccc2C)cc1OC |  | inactive: 8.27% |
| Cc1cccc(C(=O)Oc2cccc3c(O)cccc23)c1 | inconclusive: 11.2 µM [inhibitor, partial curve, poor fit] |  |
| CCCCCCC(C)n1[nH]c(=O)cc1N (stereo not given) | inconclusive: 8.91 µM [inhibitor, partial curve, poor fit] |  |
